The text below walks through data of PMC4336329 (PLoS ONE, 2015).

The whole screen tested about 310,000 compounds, of which about 14,000 (4.5%) showed an effect of 50% or more. The effect is printed as a negative number. Some of the results follow.
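Also: peak tail current of the secondary pulse compared with the same well before compound.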

This assay deals with human ether-à-go-go-related gene (hERG) potassium channel (human, UniProt Q12809). The experiment in a line: primary screen, population patch clamp on CHO cells stably expressing hERG.
human ether-à-go-go-related gene (hERG) potassium channel, sequence (Q12809 whole entry, looked up): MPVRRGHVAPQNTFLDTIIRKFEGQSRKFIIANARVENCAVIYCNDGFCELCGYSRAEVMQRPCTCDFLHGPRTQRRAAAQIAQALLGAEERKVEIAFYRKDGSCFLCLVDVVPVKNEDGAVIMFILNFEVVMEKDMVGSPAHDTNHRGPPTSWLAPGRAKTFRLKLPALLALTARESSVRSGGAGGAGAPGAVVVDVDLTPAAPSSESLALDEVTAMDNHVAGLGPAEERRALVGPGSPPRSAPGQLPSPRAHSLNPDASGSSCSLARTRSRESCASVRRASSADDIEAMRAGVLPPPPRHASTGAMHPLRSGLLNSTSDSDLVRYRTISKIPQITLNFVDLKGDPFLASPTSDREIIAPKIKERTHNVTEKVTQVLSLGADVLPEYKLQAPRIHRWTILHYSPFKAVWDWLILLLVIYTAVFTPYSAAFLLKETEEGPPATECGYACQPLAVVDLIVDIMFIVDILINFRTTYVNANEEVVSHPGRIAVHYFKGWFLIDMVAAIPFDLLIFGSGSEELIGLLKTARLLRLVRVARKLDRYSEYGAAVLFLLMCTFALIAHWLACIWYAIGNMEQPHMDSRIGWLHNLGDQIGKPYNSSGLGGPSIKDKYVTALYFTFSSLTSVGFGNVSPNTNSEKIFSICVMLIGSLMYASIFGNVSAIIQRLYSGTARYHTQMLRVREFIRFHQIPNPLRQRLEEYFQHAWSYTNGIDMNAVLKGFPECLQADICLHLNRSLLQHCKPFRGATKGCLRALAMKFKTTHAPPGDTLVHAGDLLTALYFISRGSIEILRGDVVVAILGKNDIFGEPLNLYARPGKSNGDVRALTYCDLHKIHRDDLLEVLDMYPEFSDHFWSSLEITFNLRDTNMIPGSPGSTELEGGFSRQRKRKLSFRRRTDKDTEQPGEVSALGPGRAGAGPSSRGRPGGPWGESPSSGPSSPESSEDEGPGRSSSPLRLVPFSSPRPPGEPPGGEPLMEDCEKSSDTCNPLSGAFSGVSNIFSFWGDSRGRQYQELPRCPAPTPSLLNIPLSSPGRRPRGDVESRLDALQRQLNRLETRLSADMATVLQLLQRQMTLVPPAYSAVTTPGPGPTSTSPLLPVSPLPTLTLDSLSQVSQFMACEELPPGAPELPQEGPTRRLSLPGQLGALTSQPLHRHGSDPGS
On to `Clc1ccc(CCC(Cn2ccnc2)Sc2c(Cl)cccc2Cl)cc1.O=[N+]([O-])O` (stereo not drawn), for which the “hERG current change (%, negative = inhibition) at 10uM” value was -9.6%. In the case of `Cc1ccc(C(=O)OCC(=O)NC2CCCCC2)cc1S(=O)(=O)N1CCCCC1` it was 8.86%; in that of `N/C(=N\OC(=O)COc1ccccc1)c1ccc(Cl)cc1`, 2.9%. The result for `COc1cc(N)c(Cc2nccc3cc(OC)c(OC)cc23)cc1OC` reads -4.16%. In the case of `O=C(Nc1cccc([N+](=O)[O-])c1)c1ccc2c(c1)OCO2` it was 2.11%; in that of `CCCNC(=O)NCCc1c(C)[nH]c2ccccc12`, 1.52%; in that of `Cc1cc(C)c2cc3c(N)c(C(=O)N4CCc5ccccc5C4)sc3nc2c1`, 14.9%. Consider `O=c1[nH]c(N2CCN(c3ccccc3)CC2)nc2c1CCCC2`, for which the “hERG current change (%, negative = inhibition) at 10uM” value is reported as 2.28%. In the case of `COc1ccc(N(Cc2cc3ccccc3[nH]c2=O)S(=O)(=O)c2ccccc2)cc1` it was 2.91%. Turning to `CCN(CC)c1ccc(-c2nnc(SCC(=O)N(CCOC)c3c(N)n(CC(C)C)c(=O)[nH]c3=O)o2)cc1`, the “hERG current change (%, negative = inhibition) at 10uM” value was -1.45%. For the compound `CC(C)CN1C(=O)C(=O)N(CC(=O)N(C)CC(=O)Nc2ccc(F)cc2)C1=O`, the “hERG current change (%, negative = inhibition) at 10uM” value was -5.4%. As for `COc1ccc(CCN2CN(S(=O)(=O)c3ccccc3)c3nc4ccccc4nc32)cc1`, the “hERG current change (%, negative = inhibition) at 10uM” value is recorded as -30.9%. The result for `CCC1=C(OC(=O)N(CC)CC)N2C(=O)OC(=NCCOC)[C@]2(Cc2ccccc2)[C@H]2C1=CC[C@H]1C(=O)N(C)C(=O)[C@H]12` reads -9.54%. Regarding `C/C(=N\NC(=O)c1cccnc1)c1c(O)cc(C)oc1=O`, the “hERG current change (%, negative = inhibition) at 10uM” value is -1.71%. Regarding `COc1ccccc1CN1CCC(CNS(=O)(=O)c2cc(-c3cc(C)no3)ccc2OC)CC1`, the “hERG current change (%, negative = inhibition) at 10uM” value is -58.2%. The result for `COc1ccccc1C(=O)NC(=O)COC(=O)Cn1[nH]c(=O)c2ccccc2c1=O` reads 9.29%. Regarding `CS(=O)(=O)N(CC(=O)N1CCCC1)c1ccc(Cl)cc1Cl`, the “hERG current change (%, negative = inhibition) at 10uM” value is on record as 9.71%. The result for `CCOC(=O)C1=C(C)OC(N)=C(C(=O)OCC)C1c1ccncc1` (stereo not drawn) reads -14.9%; that for `Cc1nc(CCNC(=O)CC2C(=O)NCCN2Cc2ccccc2F)sc1C` (stereo not drawn), 17.9%; that for `CN(C(=O)c1ccc(OC2CCN(CCc3ccccc3)CC2)cc1)C1CCOCC1`, -9.93%. Consider `O=C(CC(NC(=O)OCc1ccccc1)C(=O)O)OCc1ccccc1` (stereo not drawn), for which the “hERG current change (%, negative = inhibition) at 10uM” value amounted to 4.67%.

For `Cc1ccccc1OCC(O)Cn1c2ccccc2c2ccccc21` (stereo not drawn), the “hERG current change (%, negative = inhibition) at 10uM” value turned out to be 2.67%. Consider `C(=N\Nc1nc(N2CCOCC2)nc(N2CCOCC2)n1)/c1ccco1`, for which the “hERG current change (%, negative = inhibition) at 10uM” value came out at 30.2%. Consider `CC(C)Cn1c(N)c(C(=O)COC(=O)c2ccc(O)cc2)c(=O)n(C)c1=O`, for which the “hERG current change (%, negative = inhibition) at 10uM” value is reported as -10.6%. The result for `CN1CCN(c2cn[nH]c(=O)c2Cl)CC1` reads 15.4%. In the case of `COc1ccc(NC(=O)NCc2ccccn2)cc1`, the “hERG current change (%, negative = inhibition) at 10uM” value amounted to 8.78%. As for `O=S(=O)(c1ccc(Cl)cc1)N1CCn2c1nc1ccccc12`, the “hERG current change (%, negative = inhibition) at 10uM” value was -11.3%. The result for `CSc1nc(S(=O)(=O)c2ccc(C)cc2)c(Cl)s1` reads -3%; that for `CC1CCN(CCCCOc2ccccc2F)CC1.O=C(O)C(=O)O`, -13.3%. For `CC1=C(C(=O)c2ccccc2)C(c2ccc(OC(F)F)cc2)NC(=S)N1` (stereo not drawn), the “hERG current change (%, negative = inhibition) at 10uM” value was -17.1%. The result for `Cc1ccc(C)c(N2CCN(S(=O)(=O)c3ccc4c(c3)NC(=O)CS4)CC2)c1` reads 1.02%. Consider `CCN(C(=O)COC(=O)c1cc(-c2ccccc2)nn1-c1ccccc1)C1CCS(=O)(=O)C1` (stereo not drawn), for which the “hERG current change (%, negative = inhibition) at 10uM” value is given as -12.8%.

In the case of `CCOc1ccc(NC(=O)N2CCC(n3c(=O)[nH]c4ccccc43)CC2)cc1`, the “hERG current change (%, negative = inhibition) at 10uM” value is given as -16.9%.

With `O=C(CSc1nnc(CN2CCCCCC2=O)n1-c1ccccn1)NCC(F)(F)F`, the “hERG current change (%, negative = inhibition) at 10uM” value is reported as -4.29%. In the case of `CC[N+]1(CC)CC2=Cc3c(ccc4ccccc34)CC2C1.[Br-]` (stereo not drawn) it was -15.1%. In the case of `CCCc1ccc(NC(=O)C2CCCN(c3cnccn3)C2)cc1` (stereo not drawn) it was -32%. Take `COc1ccc(C2=NOC(C(=O)NCC(C)C)C2)cc1` (stereo not drawn): the “hERG current change (%, negative = inhibition) at 10uM” value was -5.43%.

Consider `CCN(CC(=O)NC1CCS(=O)(=O)C1)S(=O)(=O)c1ccc(C)c(C)c1` (stereo not drawn), for which the “hERG current change (%, negative = inhibition) at 10uM” value was 2.78%. Turning to `CC(C)(C)n1nnnc1C(c1ccc2ncccc2c1)N1CCC(O)CC1` (stereo not drawn), the “hERG current change (%, negative = inhibition) at 10uM” value came out at 12.4%.

For the compound `CCSc1nnc(NC(=O)CSc2sc3c(O)cc(=O)[nH]c3c2C#N)s1`, the “hERG current change (%, negative = inhibition) at 10uM” value was 6.94%. `CSc1nc2ccc(S(=O)(=O)N3CCc4ccccc43)cc2s1`: the “hERG current change (%, negative = inhibition) at 10uM” value is listed as -13.4%. As to `O=C(c1ccccc1)N1CCC(=O)N1c1ccccc1`, the “hERG current change (%, negative = inhibition) at 10uM” value was 2.26%. The result for `COc1cccc(NC(=S)N(CCN(C)C)C(C)c2ccco2)c1` (stereo not drawn) reads -26.9%. Turning to `Cc1c(N2C(=O)CSC2c2ccc(F)cc2)c(=O)n(-c2ccccc2)n1C` (stereo not drawn), the “hERG current change (%, negative = inhibition) at 10uM” value stood at 13.7%. Consider `COc1cc(/C=C/c2nc3ccccc3c(=O)n2-c2ccccc2O)ccc1O`, for which the “hERG current change (%, negative = inhibition) at 10uM” value is recorded as -0.27%. In the case of `COc1cc(OC)c2c(=O)cc(-c3ccccc3)oc2c1` it was -13.7%; in that of `CCOC(=O)C1(CCOc2ccccc2)CCN(Cc2ccc(COC)o2)CC1`, -63.7%. In the case of `Nc1ccc(N=Nc2ccc(N)cc2)cc1` it was 22.3%. On to `Brc1cccc(Nc2nc(-c3cccnc3)cs2)c1`, for which the “hERG current change (%, negative = inhibition) at 10uM” value is on record as 29.1%. The result for `Cc1cc(C(F)(F)F)c2c(N)c(C(=O)Nc3cc(C)on3)sc2n1` reads 4.53%; that for `Cl.Clc1ccc(CNC2CN3CCC2CC3)cc1` (stereo not drawn), -28.6%. As to `CCCc1nc(SCC(N)=O)[nH]c(=O)c1CC`, the “hERG current change (%, negative = inhibition) at 10uM” value stood at 7.34%. `C=CCN1C(=O)c2ccc(C(=O)N3CCN(S(=O)(=O)c4cccc(Cl)c4)CC3)cc2C1=O`: the “hERG current change (%, negative = inhibition) at 10uM” value was -14.8%.

On to `COc1ccc(Br)cc1CN(C)CC(=O)NCc1ccc(F)cc1.O=C(O)C(=O)O`, for which the “hERG current change (%, negative = inhibition) at 10uM” value is -19.3%.

For `Cc1ccc(NC(=O)COC(=O)Cn2cnc3c2c(=O)n(C)c(=O)n3C)c(Cl)c1`, the “hERG current change (%, negative = inhibition) at 10uM” value was 4.68%. For the compound `CCN=C(NC#N)SCc1c(F)cccc1Cl`, the “hERG current change (%, negative = inhibition) at 10uM” value turned out to be 7.17%. In the case of `c1ccc(CN2CCC(=NNc3nc4ccccc4[nH]3)CC2)cc1` it was -17.1%; in that of `CC(C)c1nc(CNC(=O)CC2C(=O)NCCN2Cc2ccoc2)cs1` (stereo not drawn), -6.74%. Turning to `C=CCN1C(=O)NC(=O)/C(=C/c2ccoc2)C1=O`, the “hERG current change (%, negative = inhibition) at 10uM” value is given as 20.5%. The result for `CCCSc1nc(N)c(C#N)c(-c2ccc(C)cc2)c1C#N` reads 15.7%; that for `CC(C)Cc1cc(C(=O)NCCc2ccccc2)no1`, -4.66%; that for `Cc1ccc(C)c(N2CC(C(=O)Nc3nccs3)CC2=O)c1` (stereo not drawn), 8.88%.

Regarding `Cc1ccc(O)c(C(=O)c2cc(C#N)c(=O)n(-c3nccs3)c2)c1`, the “hERG current change (%, negative = inhibition) at 10uM” value is given as 5.96%. For `O=C(c1ccco1)N1N=C(c2ccc(Br)cc2)CC1(O)C(F)(F)F` (stereo not drawn), the “hERG current change (%, negative = inhibition) at 10uM” value was found to be 17.9%. In the case of `CCOC(=O)CSc1nc(C)cc(Oc2ccc(=O)n(C)n2)n1`, the “hERG current change (%, negative = inhibition) at 10uM” value is given as 9.38%.

As to `O=S(=O)(NCC1CCCO1)c1ccc2ccccc2c1` (stereo not drawn), the “hERG current change (%, negative = inhibition) at 10uM” value is -7.09%. On to `O=C(CSc1nnc2scc(-c3ccccc3)n12)N1CCCc2ccccc21`, for which the “hERG current change (%, negative = inhibition) at 10uM” value was -11.8%. With `Cc1cccc(C(=O)OCC(=O)c2c(N)n(CC(C)C)c(=O)n(C)c2=O)c1[N+](=O)[O-]`, the “hERG current change (%, negative = inhibition) at 10uM” value is given as -29.1%.

For the compound `Cc1c(C)c2ccc(OC(C)C(=O)NCCc3c[nH]c4ccccc34)cc2oc1=O` (stereo not drawn), the “hERG current change (%, negative = inhibition) at 10uM” value is listed as -2.3%. Regarding `CCNC(=O)CN(C1CCCCC1)S(C)(=O)=O`, the “hERG current change (%, negative = inhibition) at 10uM” value is on record as -0.485%. The result for `CCn1c(NCc2cccc(OC)c2OC)nc2ccccc21` reads -21%; that for `CC(=O)OCCNc1cc(SC(C)C)c2nonc2c1[N+](=O)[O-]`, -3.86%; that for `Cc1ccc(N=C2NC(=O)/C(=C/C=C/c3ccco3)S2)cc1`, 25.4%. As to `CCC1CC(C)(C(=O)Nc2ccc(S(N)(=O)=O)cc2)OC1=O` (stereo not drawn), the “hERG current change (%, negative = inhibition) at 10uM” value worked out at 2.52%.

Take `COC(=O)COc1ccc(S(=O)(=O)N2CCN(c3ccccc3F)CC2)cc1`: the “hERG current change (%, negative = inhibition) at 10uM” value is -3.27%. `Cc1cc(C)n2ncc(S(=O)(=O)c3ccccc3)c2n1`: the “hERG current change (%, negative = inhibition) at 10uM” value was 7.89%. The result for `CCOC(=O)CNC(=O)C1CCCN(c2ncccn2)C1` (stereo not drawn) reads 19.6%; that for `C=CCOc1ccc(CNC(C)(C)CO)cc1OCC.Cl`, 5.02%; that for `Cc1ccc(NC(=S)c2nc3ccccc3[nH]2)c(C)c1`, 15.2%. `CCCN(CC(=O)Nc1ccccc1OC)C(C)C(=O)NC(C)CCc1ccccc1` (stereo not drawn): the “hERG current change (%, negative = inhibition) at 10uM” value worked out at 4.82%. On to `COc1ccc(N(C(=O)CNC(=O)c2ccco2)C(C(=O)NC2CCCC2)c2cccnc2)cc1` (stereo not drawn), for which the “hERG current change (%, negative = inhibition) at 10uM” value amounted to 17.1%. Consider `Cc1ccc(S(=O)(=O)C2CS(=O)(=O)CC2O)cc1` (stereo not drawn), for which the “hERG current change (%, negative = inhibition) at 10uM” value is 17.5%. Turning to `CCOC(=O)N1CCN(C(=O)COC(=O)c2ccccc2NCCO)CC1`, the “hERG current change (%, negative = inhibition) at 10uM” value is 13.3%. Take `O=C(O)CCC(=O)NNC(=O)c1cccs1`: the “hERG current change (%, negative = inhibition) at 10uM” value came to 21.8%.

On to `CCOc1ccc(N(C)C(=O)CCc2nnc3ccc(N4CCCC4)nn23)cc1`, for which the “hERG current change (%, negative = inhibition) at 10uM” value was found to be 7.97%. Regarding `Clc1ccc(Nc2ncn[nH]2)cc1`, the “hERG current change (%, negative = inhibition) at 10uM” value was found to be 11.6%. In the case of `CC12CCCCC1(O)[N+](=O)C1=C(CCCC1)N2[O-]` (stereo not drawn) it was 17.1%; in that of `Cc1ccc(N(Cc2cc3ccccc3[nH]c2=O)C(=O)c2cccs2)cc1`, -2.92%. As to `Cc1n[nH]c(C)c1C(=O)CC1(O)C(=O)N(CCc2ccccc2)c2ccc(Cl)cc21` (stereo not drawn), the “hERG current change (%, negative = inhibition) at 10uM” value was -10.2%. As for `N#Cc1ccccc1OCC(=O)OCC(=O)NCc1ccc2c(c1)OCO2`, the “hERG current change (%, negative = inhibition) at 10uM” value is recorded as 6.83%.
